Our source for the binding signal (RPM ratio (pull-down/input)) values is publication PMC12820563.

The other results are listed elsewhere or left out. The list includes weakly bound sequences.

In this experiment the target is T1, MBP-FoxP3dN (UniProt Q99JB6).
T1 sequence: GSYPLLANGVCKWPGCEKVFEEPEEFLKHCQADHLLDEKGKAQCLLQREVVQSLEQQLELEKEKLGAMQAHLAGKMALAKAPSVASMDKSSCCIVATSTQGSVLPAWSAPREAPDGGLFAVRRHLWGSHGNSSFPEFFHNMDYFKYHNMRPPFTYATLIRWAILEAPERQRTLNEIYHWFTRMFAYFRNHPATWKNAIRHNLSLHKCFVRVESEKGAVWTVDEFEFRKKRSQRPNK
Description: PD-seq (MBP pull-down with sequencing). Conditions: 20 mM Tris-HCl pH 7.5, 100 mM NaCl, 1.5 mM MgCl2, 0.4 uM protein, 0.1 uM dsDNA library, 30 min, room temperature, amylose pull-down; high values mean tight binding; double strand, one strand shown.
On to “GATGATTGTTCTCCCAGCTGATGAATTTATCGGGTCGAGTAAACAAATTTTCCTAATCTTTCTGTTCAAGCGCCATCTAC”, for which the binding signal (RPM ratio (pull-down/input)) was found to be 0.725.
With “GATGATTGTTCTCCCAGCTGATGAATTCACGAATTCGAGTAAACAAATTTTCCTAATCTTTCTGTTCAAGCGCCATCTAC”, the binding signal (RPM ratio (pull-down/input)) was determined as 0.551.
As to “GATGATTGTTCTCCCAGCTGATGAATTTTTAAACTCGAGTAAACAAATTTTCCTAATCTTTCTGTTCAAGCGCCATCTAC”, the binding signal (RPM ratio (pull-down/input)) was 0.29.
On to “GATGATTGTTCTCCCAGCTGATGAATTGAATGTATCGAGTAAACAAATTTTCCTAATCTTTCTGTTCAAGCGCCATCTAC”, for which the binding signal (RPM ratio (pull-down/input)) came out at 1.11.
Regarding “GATGATTGTTCTCCCAGCTGATGAATTTTTACTTTCGAGTAAACAAATTTTCCTAATCTTTCTGTTCAAGCGCCATCTAC”, the binding signal (RPM ratio (pull-down/input)) was 0.282.
“GATGATTGTTCTCCCAGCTGATGAATTTCCGAGATCGAGTAAACAAATTTTCCTAATCTTTCTGTTCAAGCGCCATCTAC”: the binding signal (RPM ratio (pull-down/input)) amounted to 0.216.
For “GATGATTGTTCTCCCAGCTGATGAATTACCATTTTCGAGTAAACAAATTTTCCTAATCTTTCTGTTCAAGCGCCATCTAC” the value was 0.384; for “GATGATTGTTCTCCCAGCTGATGAATTGGGTGGTTCGAGTAAACAAATTTTCCTAATCTTTCTGTTCAAGCGCCATCTAC”, 0.736.
For “GATGATTGTTCTCCCAGCTGATGAATTCGCTCGATCGAGTAAACAAATTTTCCTAATCTTTCTGTTCAAGCGCCATCTAC” the value was 0.282; for “GATGATTGTTCTCCCAGCTGATGAATTAGGAGCTTCGAGTAAACAAATTTTCCTAATCTTTCTGTTCAAGCGCCATCTAC”, 0.351; for “GATGATTGTTCTCCCAGCTGATGAATTTGACCGCTCGAGTAAACAAATTTTCCTAATCTTTCTGTTCAAGCGCCATCTAC”, 0.288.
The figure for “GATGATTGTTCTCCCAGCTGATGAATTGCGCACGTCGAGTAAACAAATTTTCCTAATCTTTCTGTTCAAGCGCCATCTAC” is 2.45; for “GATGATTGTTCTCCCAGCTGATGAATTTCTCTCGTCGAGTAAACAAATTTTCCTAATCTTTCTGTTCAAGCGCCATCTAC” it is 0.26.
On to “GATGATTGTTCTCCCAGCTGATGAATTCGGAACATCGAGTAAACAAATTTTCCTAATCTTTCTGTTCAAGCGCCATCTAC”, for which the binding signal (RPM ratio (pull-down/input)) is 0.387.
Turning to “GATGATTGTTCTCCCAGCTGATGAATTCGGCCACTCGAGTAAACAAATTTTCCTAATCTTTCTGTTCAAGCGCCATCTAC”, the binding signal (RPM ratio (pull-down/input)) came out at 4.83.
The figure for “GATGATTGTTCTCCCAGCTGATGAATTGAAAAGATCGAGTAAACAAATTTTCCTAATCTTTCTGTTCAAGCGCCATCTAC” is 0.17; for “GATGATTGTTCTCCCAGCTGATGAATTCGAAGACTCGAGTAAACAAATTTTCCTAATCTTTCTGTTCAAGCGCCATCTAC” it is 0.261.
With “GATGATTGTTCTCCCAGCTGATGAATTTGGCCGGTCGAGTAAACAAATTTTCCTAATCTTTCTGTTCAAGCGCCATCTAC”, the binding signal (RPM ratio (pull-down/input)) came out at 0.531.
With “GATGATTGTTCTCCCAGCTGATGAATTGACTCAGTCGAGTAAACAAATTTTCCTAATCTTTCTGTTCAAGCGCCATCTAC”, the binding signal (RPM ratio (pull-down/input)) came out at 0.273.
As to “GATGATTGTTCTCCCAGCTGATGAATTAACCGCTTCGAGTAAACAAATTTTCCTAATCTTTCTGTTCAAGCGCCATCTAC”, the binding signal (RPM ratio (pull-down/input)) stood at 0.356.
As for “GATGATTGTTCTCCCAGCTGATGAATTGCGCATCTCGAGTAAACAAATTTTCCTAATCTTTCTGTTCAAGCGCCATCTAC”, the binding signal (RPM ratio (pull-down/input)) came out at 8.03.
On to “GATGATTGTTCTCCCAGCTGATGAATTGAGGAACTCGAGTAAACAAATTTTCCTAATCTTTCTGTTCAAGCGCCATCTAC”, for which the binding signal (RPM ratio (pull-down/input)) was found to be 0.206.
For “GATGATTGTTCTCCCAGCTGATGAATTTAGGGTCTCGAGTAAACAAATTTTCCTAATCTTTCTGTTCAAGCGCCATCTAC” the value was 1.07.
For “GATGATTGTTCTCCCAGCTGATGAATTAAAAACTTCGAGTAAACAAATTTTCCTAATCTTTCTGTTCAAGCGCCATCTAC” the value was 0.307; for “GATGATTGTTCTCCCAGCTGATGAATTACCCGTCTCGAGTAAACAAATTTTCCTAATCTTTCTGTTCAAGCGCCATCTAC”, 0.3; for “GATGATTGTTCTCCCAGCTGATGAATTGCTTACATCGAGTAAACAAATTTTCCTAATCTTTCTGTTCAAGCGCCATCTAC”, 2.43.
As for “GATGATTGTTCTCCCAGCTGATGAATTCAGTATATCGAGTAAACAAATTTTCCTAATCTTTCTGTTCAAGCGCCATCTAC”, the binding signal (RPM ratio (pull-down/input)) is 2.12.
As to “GATGATTGTTCTCCCAGCTGATGAATTTATGGTATCGAGTAAACAAATTTTCCTAATCTTTCTGTTCAAGCGCCATCTAC”, the binding signal (RPM ratio (pull-down/input)) is 1.97.
The figure for “GATGATTGTTCTCCCAGCTGATGAATTGATGCGATCGAGTAAACAAATTTTCCTAATCTTTCTGTTCAAGCGCCATCTAC” is 3.21.
Turning to “GATGATTGTTCTCCCAGCTGATGAATTACGGTCTTCGAGTAAACAAATTTTCCTAATCTTTCTGTTCAAGCGCCATCTAC”, the binding signal (RPM ratio (pull-down/input)) amounted to 0.525.
For “GATGATTGTTCTCCCAGCTGATGAATTTAATCCGTCGAGTAAACAAATTTTCCTAATCTTTCTGTTCAAGCGCCATCTAC” the value was 0.28.
